From paper PMC12136788
Some of the results follow.

T1: UNK ZnF1-3 (human, UniProt Q9C0B0 31-174)
T1 sequence: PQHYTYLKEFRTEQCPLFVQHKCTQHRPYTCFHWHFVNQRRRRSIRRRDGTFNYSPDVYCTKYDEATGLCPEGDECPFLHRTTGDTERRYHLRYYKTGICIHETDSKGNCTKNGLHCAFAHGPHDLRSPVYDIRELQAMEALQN

B1: chr16:94690093:94690094:+_ENSMUSG00000040785_ENSMUST00000117648|mus_hu|mus_mus_mus_hu_True|88_98 (ssRNA)
RNA: GGGAGUUCUACAGUCCGACGAUCGGGCUGGGAUGACAGCAGACAGCAUCUUCCCAGAGGGGGAAAAAGUCUUAGUCGAUACUAAUUAAAAAGUGUUAAUGAUUUUUGAAAAUCAGAUUACAUCUAUAAAAGAUGAAAAGCAAACAACAGAGGAUUGAGCAUCA
B2: chr17:41352247:41352248:+_ENSG00000188554_ENST00000341165|hu_mus|FALSE|FALSE (ssRNA)
RNA: GGGAGUUCUACAGUCCGACGAUCAGACUGACUUUGGACUUCUUCAUCUUGGACUUCCUCCUCUUCCUCAACGACUUCUUCCUCAACAAUGUGGACAAUCUCCUCCCUCUCAUCUCCACGCGGUCCUUCUUCAGGCAAGGCAAACAACAGAGGAUUGAGCAUCA
B3: chr1:220276048:220276049:+_ENSG00000067704_ENST00000302637|hu_hu|hu_hu_hu_mus_True|8_8 (ssRNA)
RNA: GGGAGUUCUACAGUCCGACGAUCGCAAAUUGCCUGGUUGGCGGGAAUUGUCCAAGGCUGGGUGGUCCAAACUAAAACGCUAACAGGGGAUGAGGCAUCUGUAAGAGACUCCAACUUCGGAGGAGGUUUUAAGAGAGGGAAUCUCAACAGAGGAUUGAGCAUCA
B4: chr3:148802587:148802588:-_ENSG00000071794_ENST00000310053|hu_mus|hu_hu_hu_mus_False|38_68 (ssRNA)
RNA: GGGAGUUCUACAGUCCGACGAUCUCCAACAACUUGUCCUCUCAUAGUUCCAAAUAAAACCAAAUCUACUUCUUCAUCACUCGUUAGGAAGUCAUCUGGAGGGAUAAUGUCUUGGAAUUCAAAAUGUGGCAAGAAAGUUGAGUACAACAGAGGAUUGAGCAUCA
B5: 70422386_70424602_1122_CDS_ENSMUSG00000032212_ENSMUST00000049263|mouse|control|control (ssRNA)
RNA: GGGAGUUCUACAGUCCGACGAUCAUUAGAAGACAGUCCACUGACCCAGAUGUUCUUGGUUGAGCUUCCACUGCUCCCACCAGCACUGCCUGUGCUCCCUUUGUCAUCUUUAGAUGAUGUCUUGCUGUCUUUAGAUUCCUUUGACAACAGAGGAUUGAGCAUCA
B6: chr12:16048344:16048345:+_ENSG00000023734_ENST00000419869|hu_mus|FALSE|FALSE (ssRNA)
RNA: GGGAGUUCUACAGUCCGACGAUCAGAUCGUCCAUAAGUAAUAACCAAAAUCUCUCCUUCAGGAAUAUACUCCAUGCUGCUAACAGACAUAUUAAAAUUCAGAGAUUUCACUUCUGUCAUUGUGGCAUGAUCCCAGAGCCGAACCAACAGAGGAUUGAGCAUCA
B7: chr16:94664741:94664742:+_ENSMUSG00000040785_ENSMUST00000117648|mus_hu|mus_mus_mus_hu_False|1_18 (ssRNA)
RNA: GGGAGUUCUACAGUCCGACGAUCUGGUACUGAUCUUGGUAGCUGAUAUUCAGGAGAAAGGCUGGCCAAGGGUGUAUAUAUGCUGGUGUACUGGGGCAAACCUGGUAACACGUUUAUGUACGCUGGUGGUGUCUGGGUGCCAAACAACAGAGGAUUGAGCAUCA
B8: 25285542_25285662_69_5pUTR_ENSMUSG00000033569_ENSMUST00000126626|mouse|control|control (ssRNA)
RNA: GGGAGUUCUACAGUCCGACGAUCGAUGCAUCUCCAGUAAUGCAAAGCGAGAGUGGGAAAAAAGCAAGCAGGCGGUGGUGCGGCGUGCAGAGAGCUGUCCAGCGCCGGAGGUGCUGAAAUCAGGACUAGCUCUGUCCAGCCCUCCAACAGAGGAUUGAGCAUCA
B9: chr1:109605286:109605287:-_ENSG00000197780_ENST00000461096|hu_mus|hu_hu_hu_mus_True|28_58 (ssRNA)
RNA: GGGAGUUCUACAGUCCGACGAUCAAGUUUCAGAGUAACAUUCAGUAACCUCUUUAAAUGCAAUUAUCCUUAUUAUAAACUAAGGGCAAUAAUAAUUUAAUACCGUAAGUAAAUACAACACAAAGCCUGAACCGCGAAAAUGGUCAACAGAGGAUUGAGCAUCA
B10: chr13:24894569:24894570:+_ENSMUSG00000019132_ENSMUST00000019276|mus_mus|FALSE|FALSE (ssRNA)
RNA: GGGAGUUCUACAGUCCGACGAUCCUGAUUAAUUCUUAGUUAUUUCAGAUUUCACUACUGCUAUGAACUGUCAGUGCUUUGCUAUUGAUUACACUUGGUGGUGAGCAAAGAGAAAAGUGCAAAAUCAGCAGAGAAAGAAGGGGACAACAGAGGAUUGAGCAUCA
B11: chr11:100882373:100882374:+_ENSMUSG00000019302_ENSMUST00000044721|mus_mus|mus_mus_mus_hu_True|28_48 (ssRNA)
RNA: GGGAGUUCUACAGUCCGACGAUCUUCCUGGUUUGUGUUGAUUUCCUUCAGUUCAUUUUCAAUCUUCUCAAAAUUGGCCUCUAAGUCGAUCAUGUCCCGGGGGAAGGGCACCUCUGGGUUUUCACCGGUGUCCAUAAUCGGAAUCAACAGAGGAUUGAGCAUCA
B12: chr2:10580766:10580767:-_ENSG00000115758_ENST00000405333|hu_mus|motif|central (ssRNA)
RNA: GGGAGUUCUACAGUCCGACGAUCCUCCUAGCCUUCCAUACUGCAUUGGUGCCAACCCUACUCUCACAAAGACAUCCCAAACGGGCAGUAAGUUAAAUGGUCCCCCCAAAUGCCUUAACACAAGCUAAACUUGCAGGCAAGAGCCAACAGAGGAUUGAGCAUCA
B13: chr19:3053611:3053612:-_ENSG00000104964_ENST00000327141|hu_hu|motif|central (ssRNA)
RNA: GGGAGUUCUACAGUCCGACGAUCCUCCCAUCUGACCCUCCAGGCCUUAGCUUGCCUCACAUGUCAGGGCAGGUAUCCACCGGACCAGGCUGCAGGGGAGGAGGAGGGAAGCCGGGAAUGGGGUAGGAAGAAAGCUAGAGGUGGCAACAGAGGAUUGAGCAUCA
B14: 110352183_110353940_588_CDS_ENSMUSG00000020623_ENSMUST00000020949|mouse|control|control (ssRNA)
RNA: GGGAGUUCUACAGUCCGACGAUCGAAGAGUGCACCGUAGAAGGUCACGGUGAAUGGACAGUCCACCGUCCUCAUGGAGACAUCCAAAUCCAUCAGCAGCCGUUUCUGUUCCUGGCUAUUAACUGUGGCCCGUAUCCGCUUCACCAACAGAGGAUUGAGCAUCA
B15: chr11:5855929:5855930:+_ENSMUSG00000002741_ENSMUST00000002818|mus_mus|FALSE|FALSE (ssRNA)
RNA: GGGAGUUCUACAGUCCGACGAUCACACGUCGUACGCGGCCUUGAGCAGCACCGCUUUCGGAUCGCCUUUGUAAAGGACACUAAGGCUGUACAGCUUCAUGGCGCCGCACCUUCGGGCCGCCGGCUGAGCCCCAGACCCGCUCCCAACAGAGGAUUGAGCAUCA
B16: 22464774_22465537_902_CDS_ENSG00000158941_ENST00000389279|human|control|control (ssRNA)
RNA: GGGAGUUCUACAGUCCGACGAUCAAAUCUGUUCAGGUGGCUCAGGUGAAGUGUGUGGGAUGUUUGGAAGAGACUCAGAGGCUUCUGAGGAAAGAGUGGGGGAAUCCGGUGAGGCUGGAAGAUCAACUGAGGCUGAGCUCCCAGCAACAGAGGAUUGAGCAUCA
B17: chr7:140404665:140404666:+_ENSG00000090266_ENST00000247866|hu_hu|hu_hu_hu_mus_False|1_78 (ssRNA)
RNA: GGGAGUUCUACAGUCCGACGAUCUGCUCCUACUCGUCCAGAGAGUUUACAGUGUCAGUCUUCAUCAUCAGGAGGGAUUCCCAGUUCUUCAUCUGUCCACUGUGAAGGAUCUGGAUAUGAAAAGUGACCCAGCACAGCUUCUGACAACAGAGGAUUGAGCAUCA
B18: chr6:31383068:31383069:+_ENSMUSG00000025609_ENSMUST00000026699|mus_mus|FALSE|FALSE (ssRNA)
RNA: GGGAGUUCUACAGUCCGACGAUCAGCUUUUUCAAUCAACUCCUCGCAAGCAUCAAAGUCACCCUUUAACACCAAUUUGUCAUGCAUAUCUGUCAACAUUGGAUGUUCCAGUGCAAUCUUGGUUUUCUUCUGCAGGGAUUCAAACAACAGAGGAUUGAGCAUCA
B19: chr4:115894766:115894767:+_ENSMUSG00000028698_ENSMUST00000030464|mus_hu|mus_mus_mus_hu_True|38_68 (ssRNA)
RNA: GGGAGUUCUACAGUCCGACGAUCUUCCACACGGAAAUGUACUUCGGGUUUUCCAACGGCCAGUACCGUCCAGCCAAAACUACCCGAACAGGGUCCUGUCCUCCUCUCCUACAGAACACAACAAAAUGCCCCCGAACUUUCAAGCAACAGAGGAUUGAGCAUCA
B20: chr1:163295886:163295887:+_ENSG00000143228_ENST00000271452|hu_mus|FALSE|FALSE (ssRNA)
RNA: GGGAGUUCUACAGUCCGACGAUCGGUUUUUGCCAUCUGCUCCUGUUAAUAAUUUAUUGCGAAUAUGAACCACAAGCUCAGCUACAUUGUAUCUGGGGAAUGACAAAGUUUCCAUUAUGGGAGUCUCCUCCCUGAGUAUUGUUGCAACAGAGGAUUGAGCAUCA
B21: chr3:33703679:33703680:+_ENSMUSG00000027677_ENSMUST00000099153|mus_mus|motif|central (ssRNA)
RNA: GGGAGUUCUACAGUCCGACGAUCUUCUAACUGCCCUCCCCUUUCUACAAGUGUCUGGCAGAGAUAUUUCCUUGCAUUCCGGUGAGUUGGGCAGUUUUCUAAUGCGAGCUCAAAAUCUUCUAUUGCUUUGUUUAGACUUCCUUUCAACAGAGGAUUGAGCAUCA
B22: chr14:70590854:70590855:-_ENSMUSG00000022091_ENSMUST00000022682|mus_hu|FALSE|FALSE (ssRNA)
RNA: GGGAGUUCUACAGUCCGACGAUCGAAGUCAAACUUGAGCCUGGCGGCCUUUCUCUUCUUCUCUUCCCUCCUGGCUGGGCUGCCCCCUCCGUUAGAGGCACUAGGGUCUCGGGUUGAGGAAGGGUAGACAAAGUCCCUCCGACCCAACAGAGGAUUGAGCAUCA

The binders below were run against T1, UNK ZnF1-3 (assay: nsRBNS (natural sequence RNA bind-n-seq); RBNS binding buffer (assumed for nsRBNS): 25 mM Tris pH 7.5, 150 mM KCl, 3 mM MgCl2, 0.01% Triton X-100, 500 ug/ml BSA, 20 U/ml SUPERase-In, 4 C; UNK is unkempt and MSI1 is Musashi-1; names of the RNAs are library labels; protein concentration not given here; high values mean tight binding).

| Binder | binding signal [enrichment R] |
| --- | --- |
| B1 | 2.25 |
| B2 | 0.961 |
| B3 | 1.78 |
| B4 | 1.27 |
| B5 | 0.455 |
| B6 | 1.22 |
| B7 | 0.966 |
| B8 | 1.33 |
| B9 | 1.1 |
| B10 | 1.16 |
| B11 | 0.453 |
| B12 | 1.58 |
| B13 | 1.09 |
| B14 | 1.07 |
| B15 | 0.517 |
| B16 | 1.32 |
| B17 | 1.35 |
| B18 | 0.79 |
| B19 | 0.951 |
| B20 | 0.872 |
| B21 | 0.31 |
| B22 | 1.06 |
